This is one part of the list. The energies were worked out here from pooled read counts, against the library average; single values are noisy.

In the test the target is T1, Pho4 (S. cerevisiae) (UniProt P07270).
T1 sequence: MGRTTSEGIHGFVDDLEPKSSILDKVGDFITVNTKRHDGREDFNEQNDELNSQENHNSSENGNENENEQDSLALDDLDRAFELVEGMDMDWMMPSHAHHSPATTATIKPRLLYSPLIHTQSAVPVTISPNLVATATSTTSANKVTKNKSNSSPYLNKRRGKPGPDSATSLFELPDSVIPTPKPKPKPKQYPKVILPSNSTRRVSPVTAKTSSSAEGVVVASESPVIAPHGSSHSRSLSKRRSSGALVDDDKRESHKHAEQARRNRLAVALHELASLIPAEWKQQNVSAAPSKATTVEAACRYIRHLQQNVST
Put plainly: relative binding free energy (BET-seq); higher = weaker binding. The note with it: reference: library average.
For TCTTTCACGTGTTCTT, the “relative binding free energy” value turned out to be 0.06 kcal/mol.
As to TCGGACACGTGATGTT, the “relative binding free energy” value amounted to 0.29 kcal/mol.
Under TATATCACGTGTTTTT stands 0.13 kcal/mol; under GGTGTCACGTGGAGTG, 0.17 kcal/mol; under TTGCGCACGTGTAGGT, 0.04 kcal/mol.
Next, TGGATCACGTGAAGTG: 0.31 kcal/mol.
For the sequence CGTTGCACGTGGTATG, the “relative binding free energy” value was -0.18 kcal/mol.
On to GACGTCACGTGGTGTT, for which the “relative binding free energy” value stood at 0.16 kcal/mol.
With AGGTGCACGTGGGACT, the “relative binding free energy” value is -0.14 kcal/mol.
Consider TAGTTCACGTGGTCGC, for which the “relative binding free energy” value was 0.35 kcal/mol.
Regarding ACGTTCACGTGAGGTT, the “relative binding free energy” value stood at 0.44 kcal/mol.
As to AGGGTCACGTGGGCTG, the “relative binding free energy” value was 0 kcal/mol.
Next, GTAGGCACGTGAGGGT: 0.26 kcal/mol; TCTGTCACGTGTGGCT: 0.24 kcal/mol.
Under ATTGGCACGTGTGACA stands 0.03 kcal/mol; under GGCAGCACGTGGTGGA, -0.05 kcal/mol; under AGAAGCACGTGATGGA, 0.14 kcal/mol.
Next, ACTTTCACGTGTTGGA: 0.3 kcal/mol; TGTGGCACGTGATAAG: -0.15 kcal/mol; GTCGGCACGTGGTGCT: -0.11 kcal/mol.
For GGGTTCACGTGTCGAG, the “relative binding free energy” value was 0.31 kcal/mol.
Next, AGCAGCACGTGTGCGG: -0.1 kcal/mol.
Next, CTGGCCACGTGAGAGT: 0.29 kcal/mol; CTCGGCACGTGGAAGT: 0.06 kcal/mol; GTTAACACGTGCCGGT: 0.03 kcal/mol.
Under GTTTACACGTGGATAG stands 0.06 kcal/mol; under TATGACACGTGGACTT, 0.1 kcal/mol; under GGTGCCACGTGAGGGC, 0.05 kcal/mol.
Regarding GTGTGCACGTGGTTTA, the “relative binding free energy” value was 0 kcal/mol.
As for ATAGGCACGTGTGTGA, the “relative binding free energy” value is -0.12 kcal/mol.
Under ATGCGCACGTGTAGGG stands -0.14 kcal/mol; under TGGAGCACGTGTCGGG, -0.15 kcal/mol; under ACTTACACGTGGTTGA, 0.1 kcal/mol.
Under TGCTCCACGTGTGAGG stands 0.06 kcal/mol; under ATTGGCACGTGAAGGC, 0.06 kcal/mol.
In the case of TGCAGCACGTGGTCGG, the “relative binding free energy” value is -0.23 kcal/mol.
Regarding ATGGGCACGTGGTATC, the “relative binding free energy” value is -0.17 kcal/mol.
On to TGGATCACGTGTGAGG, for which the “relative binding free energy” value was 0.19 kcal/mol.
Regarding CTGAGCACGTGGAGTG, the “relative binding free energy” value is -0.03 kcal/mol.
Consider ACGGTCACGTGGTGGC, for which the “relative binding free energy” value was found to be 0.15 kcal/mol.
Under TCAGGCACGTGTGTAA stands -0.05 kcal/mol; under TGGTCCACGTGGTGCA, -0.06 kcal/mol.
Turning to TGTTTCACGTGGTTGG, the “relative binding free energy” value turned out to be 0.28 kcal/mol.
In the case of TGTGGCACGTGATTGT, the “relative binding free energy” value amounted to 0.09 kcal/mol.
On to CTGGACACGTGGGTAG, for which the “relative binding free energy” value was -0.03 kcal/mol.
Next, TAGGGCACGTGTCTGT: -0.04 kcal/mol; TTGTACACGTGTAGTT: 0.11 kcal/mol.
Next, ATATGCACGTGGATGC: -0.01 kcal/mol.
For TTCGGCACGTGGAGTT, the “relative binding free energy” value was -0.1 kcal/mol.
Under AAATTCACGTGTCTGT stands 0.27 kcal/mol; under GGTATCACGTGGTTAC, 0.15 kcal/mol.
Under GCGATCACGTGGGGGG stands 0.16 kcal/mol; under AGTTTCACGTGATAAA, 0.23 kcal/mol.
Under ATATACACGTGTTGTT stands 0.03 kcal/mol; under AAATTCACGTGAAGTG, 0.29 kcal/mol; under TTTCACACGTGTTAAT, 0.21 kcal/mol.
As to GTTCTCACGTGTTACG, the “relative binding free energy” value is 0.36 kcal/mol.
Take AATAGCACGTGGGTGA: the “relative binding free energy” value is -0.3 kcal/mol.
TTTATCACGTGTTCAA: the “relative binding free energy” value was determined as 0.04 kcal/mol.
Under GGCGTCACGTGGGAAT stands 0.19 kcal/mol.
Next, GGTCCCACGTGTTGTG: -0.12 kcal/mol; CGGGGCACGTGTTGTG: -0.21 kcal/mol; TAATGCACGTGTGTGC: 0.06 kcal/mol.
Regarding TGAATCACGTGTGAGA, the “relative binding free energy” value is 0.17 kcal/mol.
As for CTTGGCACGTGTGAGC, the “relative binding free energy” value is -0.05 kcal/mol.
On to ACGGGCACGTGTTGGA, for which the “relative binding free energy” value is -0.01 kcal/mol.
Next, TTTAACACGTGTTCAT: 0.04 kcal/mol.
Next, GGTAGCACGTGGTCTG: -0.18 kcal/mol; TTTAACACGTGTGGGG: 0.14 kcal/mol.
In the case of TAGTTCACGTGCTATG, the “relative binding free energy” value turned out to be 0.12 kcal/mol.
Under GGTGCCACGTGTAGGG stands 0 kcal/mol.
Turning to GGGGCCACGTGGCGTT, the “relative binding free energy” value was -0.03 kcal/mol.
For the sequence ACAGGCACGTGCGTGG, the “relative binding free energy” value was -0.12 kcal/mol.
Regarding GTGGGCACGTGGGGGA, the “relative binding free energy” value is -0.14 kcal/mol.
With GGTTTCACGTGGCTGG, the “relative binding free energy” value stood at 0.38 kcal/mol.
Consider TTAGGCACGTGTGTAG, for which the “relative binding free energy” value is -0.1 kcal/mol.
Next, GGTGTCACGTGGATGA: 0.1 kcal/mol; TTTCTCACGTGGTGGA: 0.21 kcal/mol; GGTTACACGTGTGACT: 0.18 kcal/mol.
Consider CTGTGCACGTGGAGTA, for which the “relative binding free energy” value is -0.03 kcal/mol.
Consider ATGTGCACGTGATACT, for which the “relative binding free energy” value was 0 kcal/mol.
Under AGTAACACGTGGTGGC stands -0.1 kcal/mol; under TCTTGCACGTGGAGGT, -0.02 kcal/mol.
Regarding GGATCCACGTGCGTGT, the “relative binding free energy” value worked out at 0 kcal/mol.
Consider AGATACACGTGGAGTA, for which the “relative binding free energy” value was -0.02 kcal/mol.
With GGAAACACGTGAGGGA, the “relative binding free energy” value came to 0.29 kcal/mol.
With TTAGGCACGTGGTTTG, the “relative binding free energy” value was -0.06 kcal/mol.
Under AGTTACACGTGTTTTC stands 0.1 kcal/mol.
Next, TTTTGCACGTGGTTAG: -0.12 kcal/mol; GGGTGCACGTGCATAG: -0.11 kcal/mol.
For GGTTTCACGTGGGCCT, the “relative binding free energy” value came to 0.36 kcal/mol.
Under GTTTTCACGTGCTTTC stands 0.34 kcal/mol; under CGTTGCACGTGGAGGG, -0.04 kcal/mol.
Consider AATGGCACGTGGGCGT, for which the “relative binding free energy” value is -0.26 kcal/mol.
Under TTTCACACGTGTTGAG stands 0 kcal/mol.
With AGCGTCACGTGGCGTG, the “relative binding free energy” value was -0.03 kcal/mol.
Take GCGCTCACGTGTTGGT: the “relative binding free energy” value came to 0.11 kcal/mol.
Under GTTTTCACGTGGGTAT stands 0.23 kcal/mol; under TAATACACGTGGGAAG, -0.01 kcal/mol; under GTGGTCACGTGGGTCA, -0.01 kcal/mol.
Next, GGCTTCACGTGTAGTA: 0.18 kcal/mol; GTCATCACGTGTGGGA: 0.26 kcal/mol.
For ATTAGCACGTGAGGTA, the “relative binding free energy” value amounted to 0.22 kcal/mol.
Under AAATTCACGTGGCGTG stands 0.16 kcal/mol.
Under AGATTCACGTGTGTCG stands 0.36 kcal/mol.
With CGGTTCACGTGTAGAG, the “relative binding free energy” value is 0.16 kcal/mol.
Regarding AAAGACACGTGAGGTT, the “relative binding free energy” value was determined as 0.13 kcal/mol.
Next, GCGGTCACGTGGGAGC: 0.22 kcal/mol; ATGTGCACGTGATCGT: -0.01 kcal/mol.
In the case of ATTAACACGTGGAGGT, the “relative binding free energy” value came to 0 kcal/mol.
Take CGAGGCACGTGCTGTG: the “relative binding free energy” value was -0.17 kcal/mol.
Next, AATACCACGTGATGGT: 0.16 kcal/mol.
Under TAACGCACGTGTGTTG stands 0 kcal/mol.
Consider TATTGCACGTGACGGG, for which the “relative binding free energy” value amounted to 0.07 kcal/mol.
Next, TTGGGCACGTGGTCCA: -0.24 kcal/mol.

The record behind these values is the BET-seq Pho4 binding data (Le et al. 2018).
